Experiment in all cases: far-Western, overlay or dot blot; lysates of HEK293T cells expressing HD-PTP mutants separated by SDS-PAGE and blotted on PVDF; overlay with 50 ng/ml GST-Grb2 or 100 ng/ml GST-GrpL overnight at 4°C; detected with anti-GST; only the binder purified
Experiment [1] has as its target T1, EGFP-Bro1-V (1-704) (human) (UniProt Q9H3S7).
T1 sequence: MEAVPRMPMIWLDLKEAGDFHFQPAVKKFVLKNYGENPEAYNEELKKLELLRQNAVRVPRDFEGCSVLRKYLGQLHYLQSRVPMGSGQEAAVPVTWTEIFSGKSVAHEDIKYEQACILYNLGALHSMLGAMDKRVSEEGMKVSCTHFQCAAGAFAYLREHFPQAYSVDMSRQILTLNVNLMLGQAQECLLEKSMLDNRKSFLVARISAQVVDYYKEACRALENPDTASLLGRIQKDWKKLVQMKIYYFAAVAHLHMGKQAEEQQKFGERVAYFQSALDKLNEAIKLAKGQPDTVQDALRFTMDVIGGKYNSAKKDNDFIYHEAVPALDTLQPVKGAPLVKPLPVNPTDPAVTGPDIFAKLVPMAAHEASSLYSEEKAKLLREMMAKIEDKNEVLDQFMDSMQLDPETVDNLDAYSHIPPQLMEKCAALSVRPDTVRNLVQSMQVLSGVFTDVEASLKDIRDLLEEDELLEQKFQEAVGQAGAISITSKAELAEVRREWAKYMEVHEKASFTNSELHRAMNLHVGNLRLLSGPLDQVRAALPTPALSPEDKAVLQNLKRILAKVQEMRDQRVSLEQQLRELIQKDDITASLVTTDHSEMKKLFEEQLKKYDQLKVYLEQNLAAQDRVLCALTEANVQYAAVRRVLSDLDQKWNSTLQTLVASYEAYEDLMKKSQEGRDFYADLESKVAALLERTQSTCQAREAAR

Chains of the proteins cited; added tags and fusions are not shown.
UniProt P62993: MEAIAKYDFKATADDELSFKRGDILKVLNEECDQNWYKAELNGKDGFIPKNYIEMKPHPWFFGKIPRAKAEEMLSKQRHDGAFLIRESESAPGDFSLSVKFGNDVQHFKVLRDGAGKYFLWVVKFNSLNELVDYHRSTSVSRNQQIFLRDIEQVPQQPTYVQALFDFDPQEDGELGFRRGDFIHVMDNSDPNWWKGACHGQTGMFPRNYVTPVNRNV

The target in experiment [2] is T2, EGFP-VHD (401-1128) (human) (UniProt Q9H3S7).
T2 sequence: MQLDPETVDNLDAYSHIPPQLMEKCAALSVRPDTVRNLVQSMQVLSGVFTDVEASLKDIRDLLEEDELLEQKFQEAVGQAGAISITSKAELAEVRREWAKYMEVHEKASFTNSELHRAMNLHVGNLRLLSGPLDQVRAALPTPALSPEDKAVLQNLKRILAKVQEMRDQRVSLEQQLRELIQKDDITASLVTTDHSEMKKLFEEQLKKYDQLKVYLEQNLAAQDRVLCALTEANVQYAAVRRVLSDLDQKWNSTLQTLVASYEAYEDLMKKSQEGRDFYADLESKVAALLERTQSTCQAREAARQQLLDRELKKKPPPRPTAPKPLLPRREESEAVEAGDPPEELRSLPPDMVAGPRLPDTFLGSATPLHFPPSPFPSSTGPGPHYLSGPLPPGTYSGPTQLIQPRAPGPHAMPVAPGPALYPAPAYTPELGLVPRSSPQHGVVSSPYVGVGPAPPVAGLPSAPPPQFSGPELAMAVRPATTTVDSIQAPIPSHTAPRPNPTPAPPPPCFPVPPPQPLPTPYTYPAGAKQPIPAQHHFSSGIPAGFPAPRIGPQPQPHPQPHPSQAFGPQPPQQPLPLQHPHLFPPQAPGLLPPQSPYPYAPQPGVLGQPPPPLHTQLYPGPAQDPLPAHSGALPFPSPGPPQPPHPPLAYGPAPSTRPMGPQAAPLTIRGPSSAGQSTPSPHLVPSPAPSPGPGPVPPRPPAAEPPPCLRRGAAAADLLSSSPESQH

In experiment [3] the target is T3, EGFP-HD (705-1128) (human) (UniProt Q9H3S7).
T3 sequence: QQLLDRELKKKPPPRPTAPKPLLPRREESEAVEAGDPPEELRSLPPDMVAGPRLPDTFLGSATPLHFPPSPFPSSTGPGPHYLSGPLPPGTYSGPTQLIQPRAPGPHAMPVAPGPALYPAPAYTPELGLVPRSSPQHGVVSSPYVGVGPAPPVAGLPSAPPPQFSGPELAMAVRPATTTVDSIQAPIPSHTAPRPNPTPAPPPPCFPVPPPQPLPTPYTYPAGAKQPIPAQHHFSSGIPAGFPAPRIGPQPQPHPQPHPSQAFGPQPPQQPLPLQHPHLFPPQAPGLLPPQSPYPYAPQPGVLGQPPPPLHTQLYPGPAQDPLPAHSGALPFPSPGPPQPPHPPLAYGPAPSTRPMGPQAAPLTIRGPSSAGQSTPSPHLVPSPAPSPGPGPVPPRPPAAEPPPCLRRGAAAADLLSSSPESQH

The target in experiment [4] is T4, EGFP-PTPc (1171-1475) (human) (UniProt Q9H3S7).
T4 sequence: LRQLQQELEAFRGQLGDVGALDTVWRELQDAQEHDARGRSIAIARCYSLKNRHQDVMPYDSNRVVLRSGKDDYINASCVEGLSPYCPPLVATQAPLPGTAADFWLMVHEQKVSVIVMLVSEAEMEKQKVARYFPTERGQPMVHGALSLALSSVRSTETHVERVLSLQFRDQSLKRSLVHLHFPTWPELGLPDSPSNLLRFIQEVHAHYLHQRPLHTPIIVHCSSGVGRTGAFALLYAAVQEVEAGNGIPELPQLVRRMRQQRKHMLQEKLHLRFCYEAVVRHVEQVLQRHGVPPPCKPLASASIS

The target in experiment [5] is T5, EGFP-V-domain (401-700) (human) (UniProt Q9H3S7).
T5 sequence: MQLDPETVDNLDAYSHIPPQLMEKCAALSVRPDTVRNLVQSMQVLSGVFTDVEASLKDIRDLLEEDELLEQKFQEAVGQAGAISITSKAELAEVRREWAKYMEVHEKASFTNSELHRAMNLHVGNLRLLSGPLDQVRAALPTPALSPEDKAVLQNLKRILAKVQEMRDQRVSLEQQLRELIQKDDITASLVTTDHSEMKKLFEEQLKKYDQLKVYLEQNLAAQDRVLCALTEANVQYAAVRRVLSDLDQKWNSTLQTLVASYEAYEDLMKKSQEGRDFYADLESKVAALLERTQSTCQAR

Experiment [6] deals with EGFP-ΔPEST (HD-PTP lacking amino acid residues 1508-1595) (human) (UniProt Q9H3S7).

In PMC3002266 one finds binding data, which are given here for two molecules.

Results are given in words; binding and its absence hold for the method and conditions named. Some results given as binding are weak or reduced against the parent protein; the word gives no strength. Where a sequence is shown, tags or fusion partners need not be part of it.

Turning to GST-Grb2 (from UniProt P62993 1-217), the binding result in experiment [1] is given as “no binding (tested: 50 ng/ml GST-Grb2)”; in experiment [2], “binds”; in experiment [3], “binds”; in experiment [4], “no binding (tested: 50 ng/ml GST-Grb2)”.

B1: GST-GrpL (protein, UniProt O75791 1-330)
chain: MEAVAKFDFTASGEDELSFHTGDVLKILSNQEEWFKAELGSQEGYVPKNFIDIQFPKWFHEGLSRHQAENLLMGKEVGFFIIRASQSSPGDFSISVRHEDDVQHFKVMRDNKGNYFLWTEKFPSLNKLVDYYRTNSISRQKQIFLRDRTREDQGHRGNSLDRRSQGGPHLSGAVGEEIRPSMNRKLSDHPPTLPLQQHQHQPQPPQYAPAPQQLQQPPQQRYLQHHHFHQERRGGSLDINDGHCGTGLGSEMNAALMHRRHTDPVQLQAAGRVRWARALYDFEALEDDELGFHSGEVVEVLDSSNPSWWTGRLHNKLGLFPANYVAPMTR
With B1, the binding entry in experiment [1] is on record as “no binding (tested: 100 ng/ml GST-GrpL)”; in experiment [5], “no binding (tested: 100 ng/ml GST-GrpL)”; in experiment [2] it was “binds”; in experiment [3], “binds”; in experiment [6], “binds”; in experiment [4], “no binding (tested: 100 ng/ml GST-GrpL)”.
